{
  "source": "the BET-seq Pho4 binding data (Le et al. 2018)",
  "note": "The list shows a part of the results. Values were computed here from the reads of four pooled replicates and scatter widely.",
  "data": [
    {"target": "T1, Pho4 (S. cerevisiae) (UniProt P07270)", "T1 sequence": "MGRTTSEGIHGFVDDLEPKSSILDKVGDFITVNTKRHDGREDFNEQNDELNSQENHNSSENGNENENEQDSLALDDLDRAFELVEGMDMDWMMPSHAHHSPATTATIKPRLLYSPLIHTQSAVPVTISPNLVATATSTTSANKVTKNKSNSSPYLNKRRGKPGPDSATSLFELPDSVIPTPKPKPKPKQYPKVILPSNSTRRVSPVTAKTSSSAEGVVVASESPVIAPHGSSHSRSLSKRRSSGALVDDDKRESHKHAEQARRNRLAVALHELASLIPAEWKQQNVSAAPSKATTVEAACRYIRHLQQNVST", "test": "relative binding free energy (BET-seq); higher = weaker binding", "conditions": "reference: library average", "units": {"relative binding free energy": "kcal/mol"}, "values": [
      {"sequence": "AATAGCACGTGTCGTT", "relative binding free energy": -0.1},
      {"sequence": "GGCGTCACGTGTGGAC", "relative binding free energy": 0.25},
      {"sequence": "TATTTCACGTGGCTAG", "relative binding free energy": 0.29},
      {"sequence": "CTATTCACGTGTTCGT", "relative binding free energy": 0.3},
      {"sequence": "GGGGGCACGTGATCGG", "relative binding free energy": -0.07},
      {"sequence": "TATTACACGTGAGGTT", "relative binding free energy": 0.3},
      {"sequence": "TTTAACACGTGGGCGC", "relative binding free energy": -0.01},
      {"sequence": "GGAGTCACGTGTGCCG", "relative binding free energy": 0.15},
      {"sequence": "CGATTCACGTGCGGGG", "relative binding free energy": 0.08},
      {"sequence": "GTGTACACGTGTTGCT", "relative binding free energy": 0.03},
      {"sequence": "TGGTGCACGTGGGGCG", "relative binding free energy": -0.08},
      {"sequence": "CAGGGCACGTGCCGGT", "relative binding free energy": -0.08},
      {"sequence": "AAGGTCACGTGTGTAA", "relative binding free energy": 0.17},
      {"sequence": "TAGTCCACGTGGCGGT", "relative binding free energy": -0.1},
      {"sequence": "AGCATCACGTGGGGTT", "relative binding free energy": 0.06},
      {"sequence": "TTAGGCACGTGGGACG", "relative binding free energy": -0.24},
      {"sequence": "TAAGTCACGTGGTTGA", "relative binding free energy": 0.02},
      {"sequence": "TATGTCACGTGGATGC", "relative binding free energy": 0.2},
      {"sequence": "GCGGGCACGTGTTGTA", "relative binding free energy": -0.16},
      {"sequence": "GTTGGCACGTGCGAGA", "relative binding free energy": 0.04},
      {"sequence": "GTTGGCACGTGGGAGT", "relative binding free energy": -0.06},
      {"sequence": "GGTAGCACGTGTGCTG", "relative binding free energy": -0.09},
      {"sequence": "TGGGGCACGTGTGACT", "relative binding free energy": -0.09},
      {"sequence": "TGTGCCACGTGTTGTT", "relative binding free energy": -0.06},
      {"sequence": "GGGGCCACGTGTGGAA", "relative binding free energy": 0.02},
      {"sequence": "ATTGTCACGTGGTTAG", "relative binding free energy": 0.12},
      {"sequence": "TAGTTCACGTGAGGAC", "relative binding free energy": 0.37},
      {"sequence": "GGCTTCACGTGGTGCT", "relative binding free energy": 0.32},
      {"sequence": "ATCAGCACGTGAGGTT", "relative binding free energy": 0.18},
      {"sequence": "AGTGGCACGTGCATGC", "relative binding free energy": -0.21},
      {"sequence": "GTGGGCACGTGAGGAA", "relative binding free energy": 0.24},
      {"sequence": "AGTTTCACGTGTGGAC", "relative binding free energy": 0.37},
      {"sequence": "ATGTTCACGTGGTTTC", "relative binding free energy": 0.32},
      {"sequence": "ATGTTCACGTGCTATT", "relative binding free energy": 0.08},
      {"sequence": "CAGGGCACGTGGGATG", "relative binding free energy": -0.2},
      {"sequence": "TTGGACACGTGGATGC", "relative binding free energy": 0.06},
      {"sequence": "TTGGGCACGTGAGTAG", "relative binding free energy": 0.09},
      {"sequence": "CGTGTCACGTGTTAAT", "relative binding free energy": 0.06},
      {"sequence": "TCATGCACGTGGAATG", "relative binding free energy": 0.12},
      {"sequence": "GGTGTCACGTGCTTAG", "relative binding free energy": 0.12},
      {"sequence": "TAGATCACGTGTCAGT", "relative binding free energy": 0.19},
      {"sequence": "GTGGGCACGTGGGAAG", "relative binding free energy": -0.1},
      {"sequence": "TGTGCCACGTGTATGT", "relative binding free energy": -0.19},
      {"sequence": "AGGGGCACGTGTGCGA", "relative binding free energy": -0.14},
      {"sequence": "AATAACACGTGTGATG", "relative binding free energy": 0.12},
      {"sequence": "AGTTGCACGTGGTCTT", "relative binding free energy": 0.03},
      {"sequence": "ACTATCACGTGGTGTT", "relative binding free energy": 0.13},
      {"sequence": "TGTAACACGTGTTGCG", "relative binding free energy": 0.05},
      {"sequence": "TGAGCCACGTGAGGGG", "relative binding free energy": 0.14},
      {"sequence": "CGGTTCACGTGGCGGT", "relative binding free energy": 0.19},
      {"sequence": "ATGATCACGTGCTTGT", "relative binding free energy": 0.07},
      {"sequence": "GTTAGCACGTGTGTAG", "relative binding free energy": -0.04},
      {"sequence": "GTTGTCACGTGTTGTG", "relative binding free energy": 0.25},
      {"sequence": "GATGACACGTGGCCGT", "relative binding free energy": 0.18},
      {"sequence": "AAGGGCACGTGGAGCG", "relative binding free energy": -0.25},
      {"sequence": "GGTTTCACGTGGTGAA", "relative binding free energy": 0.32},
      {"sequence": "TTGCTCACGTGAATGT", "relative binding free energy": 0.24},
      {"sequence": "TTACTCACGTGCTTTT", "relative binding free energy": 0.2},
      {"sequence": "GGTGACACGTGGGGGG", "relative binding free energy": -0.04},
      {"sequence": "CAGTTCACGTGATTGG", "relative binding free energy": 0.42},
      {"sequence": "TTGTACACGTGAAAAT", "relative binding free energy": 0.26},
      {"sequence": "TTTTTCACGTGTAGTT", "relative binding free energy": 0.23},
      {"sequence": "GGATGCACGTGCTTGG", "relative binding free energy": -0.09},
      {"sequence": "GAGTTCACGTGTCAGT", "relative binding free energy": 0.4},
      {"sequence": "GTTTCCACGTGAGTTT", "relative binding free energy": 0.44},
      {"sequence": "TGTGGCACGTGGATAT", "relative binding free energy": -0.07},
      {"sequence": "TCTTGCACGTGTATTG", "relative binding free energy": 0.04},
      {"sequence": "AGGCTCACGTGAGGGC", "relative binding free energy": 0.36},
      {"sequence": "CTGTTCACGTGTTTTG", "relative binding free energy": 0.15},
      {"sequence": "GTAATCACGTGGGTTT", "relative binding free energy": 0.09},
      {"sequence": "TTGATCACGTGGGCGC", "relative binding free energy": -0.07},
      {"sequence": "CTTGACACGTGATGGG", "relative binding free energy": -0.01},
      {"sequence": "TTATGCACGTGTTATC", "relative binding free energy": -0.2},
      {"sequence": "GGAATCACGTGTAGGG", "relative binding free energy": 0.07},
      {"sequence": "ACGTTCACGTGGTGAT", "relative binding free energy": 0.13},
      {"sequence": "ATGATCACGTGACTGT", "relative binding free energy": 0.24},
      {"sequence": "CGTAACACGTGGTAAG", "relative binding free energy": 0.02},
      {"sequence": "TATCTCACGTGTTTGG", "relative binding free energy": 0.11},
      {"sequence": "GGGGGCACGTGCAGTC", "relative binding free energy": -0.1},
      {"sequence": "AATTACACGTGGTGCG", "relative binding free energy": -0.05},
      {"sequence": "TAGTTCACGTGGAGGC", "relative binding free energy": 0.31},
      {"sequence": "GTCGGCACGTGGACGG", "relative binding free energy": -0.05},
      {"sequence": "GAGGGCACGTGGGGTC", "relative binding free energy": -0.1},
      {"sequence": "TGGCGCACGTGGTGTC", "relative binding free energy": -0.29},
      {"sequence": "GGAGCCACGTGAGAGT", "relative binding free energy": 0.2},
      {"sequence": "TGATACACGTGTATTT", "relative binding free energy": 0.03},
      {"sequence": "TTGGTCACGTGTATTG", "relative binding free energy": 0.13},
      {"sequence": "TCGGGCACGTGCGGGA", "relative binding free energy": -0.09},
      {"sequence": "TGGCGCACGTGAGGCT", "relative binding free energy": 0.06},
      {"sequence": "TCTCACACGTGTTTGT", "relative binding free energy": 0.2},
      {"sequence": "TTAAGCACGTGGTTTC", "relative binding free energy": -0.12},
      {"sequence": "TTGGACACGTGCGGAG", "relative binding free energy": 0.07},
      {"sequence": "TGGACCACGTGTAGGT", "relative binding free energy": 0.03},
      {"sequence": "CAGTGCACGTGAGTCT", "relative binding free energy": 0.35},
      {"sequence": "AATCGCACGTGGAAGT", "relative binding free energy": 0.25},
      {"sequence": "GTGCGCACGTGATGTT", "relative binding free energy": 0.07},
      {"sequence": "TCTAGCACGTGTGCTG", "relative binding free energy": 0.05},
      {"sequence": "TGGGGCACGTGAACGA", "relative binding free energy": 0.03},
      {"sequence": "TTTATCACGTGGTGCC", "relative binding free energy": 0.08},
      {"sequence": "CAGGACACGTGTGCGG", "relative binding free energy": -0.08},
      {"sequence": "AGGGGCACGTGTTAGG", "relative binding free energy": -0.17},
      {"sequence": "ATAGTCACGTGATTGT", "relative binding free energy": 0.12},
      {"sequence": "TATGACACGTGGTTAG", "relative binding free energy": -0.05},
      {"sequence": "CAAAACACGTGGTGGG", "relative binding free energy": -0.1},
      {"sequence": "ATATTCACGTGTCGGT", "relative binding free energy": 0.27},
      {"sequence": "AGTATCACGTGCTTGT", "relative binding free energy": 0.02},
      {"sequence": "CATAGCACGTGGAGTG", "relative binding free energy": -0.14},
      {"sequence": "TTGTACACGTGGGTTT", "relative binding free energy": -0.13},
      {"sequence": "CTGTCCACGTGGTTTG", "relative binding free energy": -0.08},
      {"sequence": "TGGTTCACGTGATTCG", "relative binding free energy": 0.24},
      {"sequence": "TATGACACGTGACGGT", "relative binding free energy": 0.01},
      {"sequence": "AGGGGCACGTGTGTTT", "relative binding free energy": -0.06},
      {"sequence": "AGTGCCACGTGTTAAA", "relative binding free energy": 0.01},
      {"sequence": "CGTAGCACGTGTGCGT", "relative binding free energy": -0.01},
      {"sequence": "TGTAGCACGTGGCTGA", "relative binding free energy": -0.12}
    ]}
  ]
}
